# The other results are listed elsewhere or left out. These are enrichments in a pooled selection; single values are uncertain. Scores sum up all selected molecules that hold the word; the word was not tested alone.
# Test system: IMP3 KH1-2
# Experiment: 6-mer SELEX enrichment z-score vs GST control; IMP3 is the RNA-binding protein IGF2BP3; higher = more enriched by binding
# Details: construct: KH1-2 (164-376); SELEX round: R4
# Method: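 SELEX-seq with GST-tagged IMP3 KH1-2 (Pro164-Phe376) and an N40 RNA pool, round 4 (stringent 300/600 mM KCl washes). 6-mer z-score of sequence-tag enrichment normalised to the corresponding GST SELEX round; RNA k-mers written as DNA (T for U).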
# IMP3 KH1-2, sequence (chain, as listed by the source): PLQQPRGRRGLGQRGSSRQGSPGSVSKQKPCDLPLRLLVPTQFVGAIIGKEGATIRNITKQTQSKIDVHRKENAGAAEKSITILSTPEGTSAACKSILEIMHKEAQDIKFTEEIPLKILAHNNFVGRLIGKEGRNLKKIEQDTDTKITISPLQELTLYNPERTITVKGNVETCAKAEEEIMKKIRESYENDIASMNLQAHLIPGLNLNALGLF
row,Sequence,6-mer SELEX enrichment z-score
1,TTCAGC,-0.026
2,AATTCC,0.906
3,TCCCTG,-0.363
4,AGCATC,-0.109
5,TGCGCT,-0.023
6,AGTACT,-0.554
7,GCTGCA,0.927
8,CATGAG,-0.841
9,TCCGAG,-1.54
10,TATAAT,1.47
11,AGACGC,-0.449
12,GCTGTT,0.116
13,TTCTCT,0.658
14,AAGAGG,0.862
15,TGGTGT,-0.009
16,GTGGTC,-0.077
17,CGTGGA,-0.931
18,GGTGCC,-1.03
19,CTCCAT,0.535
20,GGATCC,-0.38

row,Sequence,6-mer SELEX enrichment z-score
1,CAACTT,0.285
2,CCCTTT,0.405
3,ACCGAG,-3.13
4,CGTTTA,-0.094
5,GCATAA,0.704
6,TGCAGT,0.541
7,CGCTGC,0.265
8,TCCCTA,-0.248
9,GACATG,0.421
10,TATCAC,1.26
11,GGTAAT,0.134
12,AGTTAT,0.1
13,CTCATA,0.759
14,TTGGTA,-0.209
15,CGACCT,-1.02
16,CAGTTT,0.183
17,CCCGAC,-2.26
18,ATAAAG,0.645
19,TAAGAT,0.774
20,CCATAC,0.589

# Reference: the supplement of paper PMC6531468
